# In all, about 350,000 compounds went through this assay and about 9,900 (2.8%) were called active. This list was built around the results that the source calls inconclusive (neither active nor inactive); the mix of calls is not that of the screen. Calls follow the shape of the dose curve; as a rule, active = well fitted activation curve with a large enough effect; inconclusive = small, poorly fitted or top-dose-only effect; inactive = no such curve, though single readings can be large or run the other way. No potency is given beside an inconclusive call; the fits are too rough. The source holds several records for some structures; these can differ, active in one and inactive in another.
# Assay: A quantitative high throughput screen for small molecules that induce DNA re-replication in MCF 10a normal breast cells. Also: nearly all actives have a fitted effect of over 50% in size. As to activity, positive = re-replication: % of control where 0% means no effect.
# Details: MCF 10A DNA re-replication, Hoechst nuclear intensity, 48 h; activity, positive = re-replication: at 46.1 µM (top of the series)
# Potency is read from the fitted curve at half-maximal effect; tags tell the direction and shape of the fitted curve.
SMILES,Potency,"activity, positive = re-replication"
O=C(O)c1ccc(/C=C/c2ccc3cccc(O)c3n2)cc1,"inconclusive [activator, partial curve, poor fit]",–
O=S(=O)(NCc1nc(-c2ccccc2)no1)c1ccc(F)cc1,–,inactive: 5.48%
O=C(NCc1ccccc1)c1nc[nH]c1C(=O)N1CCN(c2ccccc2)CC1,"inconclusive [activator, full curve, poor fit]",–
CCOC(=O)/C(C#N)=C/c1cn(CCOc2ccccc2)c2ccccc12,"inconclusive [activator, partial curve, poor fit]",–
N#Cc1c(SCC(=O)Nc2ccc(C(F)(F)F)cc2)sc2c(O)cc(=O)[nH]c12,"inconclusive [activator, single point]",–
O=C(CNC(=O)c1ccccc1Br)NNC(=O)c1cccs1,–,inactive: -1.43%
CC1CCN(Cc2nnnn2CCCC(=O)N(C)C2CCOC2)CC1 (centres undefined),–,inactive: -0.429%
COc1ccc(OC)c(Nc2nc(NCc3ccco3)c3ccccc3n2)c1,"inconclusive [activator, single point]",–
N#C/C(=C(/O)COc1cccc2ccccc12)c1nc2ccccc2[nH]1,"inconclusive [activator, partial curve]",–
COC(=O)COc1ccc(S(=O)(=O)N2CCCCCC2)cc1,–,inactive: 5.37%
CSc1ccc(CCNC(=O)CN2C(=O)c3cccnc3Oc3ccc(C)cc32)cc1,"inconclusive [activator, partial curve, poor fit]",–
COc1ccc2c(c1OC)C(=O)N(c1cccc(C(F)(F)F)c1)C2,–,inactive: -2.57%
CC(=O)Oc1ccc(OC(C)=O)c2c1CC(C)=C(C)C2,"inconclusive [activator, single point]",–
O=C(Nc1cccc(S(=O)(=O)N2CCOCC2)c1)c1ccc(Cl)c([N+](=O)[O-])c1,active: 9.2 µM,–
CCN(C1CCCCC1)S(=O)(=O)c1ccc(S(=O)(=O)NCc2ccncc2)cc1,–,inactive: -0.997%
CCOc1cc(/C=C2/C(=N)N3C=CSC3=NC2=O)ccc1OCCCOc1ccccc1C,active: 3.26 µM,–
CCOc1cc(C(c2c(C)[nH][nH]c2=O)c2c(C)[nH][nH]c2=O)ccc1OCc1ccc([N+](=O)[O-])cc1,"inconclusive [activator, single point]",–
COc1ccc(N=C2NN=C(c3c(C)[nH]c4ccccc34)CS2)cc1,active: 18.4 µM,–
Cc1ccc(S(=O)(=O)N2CC3(C)CN(S(=O)(=O)c4ccc(C)cc4)CC(C)(C2)C3)cc1,–,inactive: 9.94%
CCCCc1cc(=O)oc2c(CN3CCN(C)CC3)c(O)ccc12,–,inactive: -1.22%
CS(=O)(=O)NCC(c1cccnc1)N1CCN(c2ccccc2F)CC1 (centres undefined),–,inactive: -2.97%
COc1c2ccoc2c(OC(C)=O)c2oc(C)cc(=O)c12,"inconclusive [activator, single point]",–

SMILES,Potency,"activity, positive = re-replication"
COc1ccc(-c2cc(-c3ccccc3)c(C#N)c(S(C)(=O)=O)n2)cc1,"inconclusive [activator, partial curve, poor fit]",–
O=c1[nH]c(=O)n(Cc2ccco2)c2c1C(C(F)(F)F)(C(F)(F)F)N=C(c1ccc(F)cc1)N2,–,inactive: 17.6%
CC1(C)c2[nH]c3ccccc3c2C[C@@H]2C(=O)N(Cc3ccccc3)C(=O)N21,active: 23.1 µM,–
COc1ccc(-n2ncc3c(SCC(=O)N4CCN(c5ccccc5OC)CC4)ncnc32)cc1,"inconclusive [activator, partial curve, poor fit]",–
CC1CN(C(=O)CS(=O)(=O)Cc2ccc(Cl)cc2)CC(C)O1 (centres undefined),–,inactive: 7.18%
CN(Cc1ccccc1)Cc1nc2c(c(=O)n(C)c(=O)n2C)n1CCCc1ccccc1,"inconclusive [activator, single point]",–
O=C(CCl)Nc1cccc(S(=O)(=O)NC2=NCCC2)c1,"inconclusive [activator, single point]",–
N#CC1=C(N)NC(=S)C(C(N)=O)C1c1ccc(Cl)cc1Cl (centres undefined),active: 14.6 µM,–
Cc1ccc(S(=O)(=O)N2CCC(=O)N(C(COCc3cccc(C(F)(F)F)c3)C(C)C)CC2)cc1 (centres undefined),"inconclusive [activator, single point]",–
CC(NC(=O)Nc1ccc(Cl)c(Cl)c1)C(c1ccccc1)N1CCOCC1 (centres undefined),"inconclusive [activator, single point]",–
COc1cccc(NC(=O)CN(C)C(=O)c2c(-c3ccccc3)noc2C)c1,–,inactive: 9.74%
CCOC(=O)c1cc(-c2ccccc2)nc2ccc(C)cc12,"inconclusive [activator, single point]",–
Cc1sc(NC(=O)Cn2[nH]c(=O)c3ccccc3c2=O)nc1-c1ccccc1,"inconclusive [activator, single point]",–
CN1c2ccccc2C(C)(C)C12CC(c1ccc(S(=O)(=O)N3CCCCC3)cc1)=NO2 (centres undefined),–,inactive: -5.98%
CCn1c2ccccc2c2cc(CN3CCN(Cc4cc(OC)ccc4O)CC3)ccc21,"inconclusive [activator, partial curve, poor fit]",–
O=c1[nH][nH]c(-c2ccccc2O)c1C(C[N+](=O)[O-])c1ccc(Br)cc1 (centres undefined),"inconclusive [activator, single point]",–
Cc1ccc(Cl)cc1N1CCN(C(=O)c2cc3c(=O)[nH]c4ccccc4c3n2C)CC1,active: 18.4 µM,–
N#C/C(=C(\O)c1cc(Cl)sc1Cl)c1nc2ccccc2[nH]1,active: 20.6 µM,–
COc1ccc(OC)c(N(CC(=O)Nc2ccccc2)S(C)(=O)=O)c1,"inconclusive [activator, single point]",–
Cn1c(=O)c2c(nc(NCC3CCCC(CN)C3)n2Cc2ccc(Cl)cc2Cl)n(C)c1=O (centres undefined),"inconclusive [activator, full curve, poor fit]",–
CCC(C)(C)NC(=O)C(c1cccn1C)N(Cc1ccc(C)cc1)C(=O)Cn1nnc2ccccc21 (centres undefined),"inconclusive [activator, partial curve]",–
Cc1ccc2oc(=O)c(/C=C(\O)c3ccco3)nc2c1,"inconclusive [activator, partial curve, poor fit]",–

# — PubChem BioAssay AID624296 (National Center for Advancing Translational Sciences (NCATS), 2012)
